Measurements: publication PMC7284133, “Identification and analysis of novel small molecule inhibitors of RNase E: Implications for antibacterial targeting and regulation of RNase E” (Biochemistry and Biophysics Reports, 2020)

Molecular target: T1, RNase E (Acinetobacter baumannii, UniProt A0ABX6CBI2)
T1 construct: gene rne; N-terminal domain (aa 1–544), N-terminally His10-tagged
Type: biochemical

| SMILES | FRET-based real-time RNA cleavage assay, single concentration (2 mM) |
| --- | --- |
| CC(C)c1c(O)nc(SCCC(=O)O)[nH]c1=O [AS2] | All three small molecules inhibited all three RNase E NTDs. |
| N[C@@H]1[C@@H](O)[C@H](O)[C@@H](COP(=O)(O)O)O[C@@H]1O [AS4, glucosamine-6-phosphate] | All three small molecules inhibited all three RNase E NTDs. |
